# In PubChem BioAssay AID1347417 (National Center for Advancing Translational Sciences (NCATS), 2020):
# Out of some 120,000 compounds screened, about 5,300 (4.4%) were called active. Inconclusive results, whose numbers are uncertain, are shown with a selection of clear calls. The call rests on the fitted dose curve; in most records, active means well fitted inhibition curve with a large enough effect; inconclusive means small, poorly fitted or top-dose-only effect; inactive means no such curve, though single readings can be large or run the other way. A potency beside an inconclusive call is a rough fit, not a confirmed value.
# Assay: qHTS Primary assay for Inhibitors of Plasmodium falciparum Dd2 growth in vitro; further: nearly all actives have a fitted effect of over 65% in size
# Conditions: P. falciparum Dd2 growth, SYBR Green, 72 h; series mostly up to 28.9 µM
# Summary of the method: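 Infected erythrocytes (Dd2, 0.3% parasitemia, 2.5% hematocrit final) are added to compound in RPMI-1640/Albumax II medium, grown 72 h at 37C in low oxygen, then lysed with saponin/Triton-X containing SYBR Green and read by fluorescence.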
# Potency means the concentration at half of the fitted maximal effect; tags describe the fitted curve by direction and shape.
row,Compound,Potency
1,COC(=O)N1CCC2(CC1)C(=O)NN=C2c1ccccn1,"inconclusive: 35.5 µM [inhibitor, partial curve, poor fit]"
2,Cc1cccc2c1nc1n2[C@@H](CNCc2ccccc2)COC1,"inconclusive: 14.1 µM [inhibitor, single point]"
3,COC(=O)N1CCC2(C1)C(=NC1CCCCC1)NC(=O)N2c1cccc(OC)c1 (stereo unspecified),inactive
4,CCC(=O)N1Cc2ccccc2CC2(CCCN(CC3CCOCC3)C2)C1 (stereo unspecified),"inconclusive: 8.91 µM [inhibitor, single point]"
5,Cc1nn2c(c1-c1cccnc1N1CCOCC1)N(C(=O)Cc1ccc(Cl)cc1)CCC2,inactive
6,O=C(Nc1ccnn1C1CCN(Cc2ccc(-c3ccccc3)cc2)CC1)C1CC1,"inconclusive: 20 µM [inhibitor, single point]"
7,Cc1nncn1C1CCN(S(=O)(=O)c2ccc(Cl)cc2)CC1,"inconclusive: 7.08 µM [inhibitor, partial curve, poor fit]"
8,O=C(Cc1ccc(F)cc1)N1CCN(C(=O)c2nnn3c2COC(c2ccc(Cl)cc2)C3)CC1 (stereo unspecified),"inconclusive: 8.91 µM [inhibitor, partial curve, poor fit]"
9,CCOc1ccc(NC(=O)Cn2c(=O)n(Cc3ccc(C(=O)NCc4ccc(C)cc4)cc3)c(=O)c3ccccc32)cc1,"inconclusive: 7.94 µM [inhibitor, partial curve, poor fit]"
10,CCOC(=O)C[C@@H]1C[C@@H](C(C)C)[C@H](CNC(=O)c2ccc(F)cc2)C=C1C,active: 11.2 µM
11,Cc1ccc(NC(=O)Cn2cc(C(=O)c3ccco3)c3ccccc32)c(C)c1,inactive
12,O=C(Nc1cccc(Cl)c1)c1cc(S(=O)(=O)N2CCCc3ccccc32)ccc1F,"inconclusive: 11.2 µM [inhibitor, single point]"
13,Cc1ccccc1-c1nccn2c(C3CN(C(=O)c4cc5ccccc5[nH]4)C3)ncc12,active: 11.2 µM
14,CCN(CC)CCCNC(=O)C(=O)Nc1ccc2nc3n(c(=O)c2c1)CCCCC3,inactive
15,C#CCN[C@H]1C[C@@H]2c3[nH]c4ccccc4c3C[C@@H](C(=O)OC)N2[C@H](c2ccc(F)cc2)C1,active: 12.6 µM
16,Cc1ccccc1N(C)C1CN(Cc2cccc3ccccc23)C1,active: 10 µM
17,CC(C)NC(=O)N1CCCC(Cn2c(C3CC3)nc3cccnc32)C1 (stereo unspecified),"inconclusive: 0.112 µM [inhibitor, full curve]"
18,CCN1c2cc(C(=O)Nc3ccc(F)c(C)c3)ccc2C(=O)N2CCCCCC21 (stereo unspecified),"inconclusive: 3.55 µM [inhibitor, single point]"
19,Cn1c(=O)c2c(-c3ccccc3Br)n(Cc3ccccc3)cc2n(C)c1=O,"inconclusive: 3.55 µM [inhibitor, partial curve, poor fit]"
20,CC(=O)Nc1ccc(NC(=O)c2nc(SCc3ccccc3C)ncc2Cl)cc1,"inconclusive: 17.8 µM [inhibitor, single point]"
21,CN(Cc1ccc2nsnc2c1)C(=O)c1cccc(-n2cnnc2)c1,inactive

row,Compound,Potency
1,CCCc1nnc([C@H]2CCN(Cc3ccc(C)o3)C2)o1,inactive
2,COc1ccccc1N1CCN([C@H]2[C@@H]3OC[C@@H](O3)[C@@H](N(CC3CC3)CC3CC3)[C@@H]2O)CC1,"inconclusive: 0.501 µM [inhibitor, full curve, poor fit]"
3,CC(C)NC(=O)N1C[C@@H]2C[C@H](C1)c1ccc(-c3cccc(C(F)(F)F)c3)c(=O)n1C2,"inconclusive: 35.5 µM [inhibitor, single point]"
4,Fc1ccccc1N1CCN(c2ncnc3onc(-c4cccc(Cl)c4)c23)CC1,"inconclusive: 17.8 µM [inhibitor, single point]"
5,CCOC(=O)c1cc(-c2ccc(OC)cc2)n(CCC(=O)Nc2cccc(C(C)=O)c2)c1C,"inconclusive: 0.158 µM [inhibitor, full curve, poor fit]"
6,Clc1ccc(CNC2(Cc3cc(COc4ccccc4)on3)COC2)cc1,inactive
7,O=C(CC(c1ccccc1)c1ccccc1Cl)N1CCCC1 (stereo unspecified),inactive
8,C=CCCC(CN1CCOCC1)Oc1cc(C)nc(-c2ccccc2)n1 (stereo unspecified),"inconclusive: 15.8 µM [inhibitor, partial curve, poor fit]"
9,COc1cccc(CC2(CO)CCCN(c3ccc(-c4nccn4C)nn3)C2)c1 (stereo unspecified),active: 8.91 µM
10,CN(C)Cc1nnc(C2CC(NC(=O)c3ccc4nccn4c3)C2)n1C (stereo unspecified),inactive
11,COC1CCC12CCN(C(=O)c1ccc(C#N)cc1)CC2 (stereo unspecified),inactive
12,COc1cc(C)ccc1OCCSc1nc2ccc(NC(=O)c3cccs3)cc2s1,"inconclusive: 1.26 µM [inhibitor, full curve, poor fit]"
13,COC1CN(c2ccc(C)cc2)C12CCN(C(=O)COc1ccc(F)cc1)CC2 (stereo unspecified),"inconclusive: 11.2 µM [inhibitor, single point]"
14,C=CCn1cc2c3c(cccc31)[C@H](CC(C)C)N[C@H](C(=O)NCCOC)C2,"inconclusive: 11.2 µM [inhibitor, partial curve]"
15,COc1ccc(CN2CCCCC23Cc2ccccc2CNC3=O)cc1F (stereo unspecified),"inconclusive: 0.355 µM [inhibitor, full curve, poor fit]"
16,CCc1ccc(NC(=O)CSc2nc3c(sc4ccccc43)c(=O)n2CCN(CC)CC)cc1,"inconclusive: 10 µM [inhibitor, single point]"
17,COc1ccc(CN2CCC3(CC2)COCCN3C(=O)OCc2ccccc2)cc1O,"inconclusive: 5.62 µM [inhibitor, partial curve]"
18,COc1ccc(C(=O)N2CCC3(CC2)NCCc2c3[nH]c3ccccc23)c(OC)n1,"inconclusive: 3.98 µM [inhibitor, single point]"
19,CCC(C)NC(=O)CSc1nnc(-c2ccc(C)cc2)c(-c2ccc(C)cc2)n1 (stereo unspecified),"inconclusive: 17.8 µM [inhibitor, single point]"
20,COCCCNC(=O)c1sc2nc(C)c(C(=O)Nc3ccc(C)cc3C)c(-c3ccc(Br)cc3)c2c1N,"inconclusive: 10 µM [inhibitor, single point]"
